# Hit rate of the full screen: of about 150,000 compounds, about 540 (0.36%) showed an effect of 50% or more. The list shows a part of the results.
# Tested on: Plasmodium falciparum
# Test: Primary screen in NF54 nanoGlo assay, in single point, at 2uM, 72h; a lower Z score goes with more inhibition
# Assay type: functional, Erythrocyte
# Settings: timepoint 72 hour
Structure (SMILES),% Inhibition,Z score
CCOc1cc(CNCc2ccccn2)ccc1OCc1ccccc1,-5%,0.89
CC1(C)[C@@H](NC(=O)N2CCC[C@@H]2CS(C)(=O)=O)C[C@H]1Oc1ccccc1,-3%,0.3
CCCc1sc(N(C(=O)CCc2ccccc2)c2ccc(OC)c(OC)c2)nc1-c1ccccc1,2%,-0.29
O=C(CN1C[C@@H]2CC[C@H]1CN(C(=O)C1CCC1)C2)NCc1ccccc1,3%,-0.52
NC(=O)c1csc(CN[C@H](c2ccc(F)c(Cl)c2)C2CC2)c1,-11%,1.5
C[C@@H](c1nc(Cc2cccs2)nn1-c1cccnc1)N1CCOCC1,7%,-1.19
CC[C@@H](c1ccccn1)N(C)C(=O)c1ccnnc1,-15%,1.97
C[C@@H](C(=O)N(C)Cc1cnc2ccccc2n1)N(C)C,-13%,2.41
COc1ccc(NC(=O)N2C[C@@H]3C[C@H](C2)c2ccc(NC(=O)COc4ccccc4)c(=O)n2C3)cc1,3%,-0.39
COc1ccc(CN(Cc2ccco2)C(=O)Nc2c(C)cccc2C)cc1OS(=O)(=O)c1ccc(F)cc1,-17%,1.54
COc1ccccc1-c1cc2nc(C)cc(Nc3ccccc3)n2n1,-13%,2.45
COC(=O)c1ccc(-c2nccn2C[C@H]2CCOC2)cc1,-17%,2.01
Cc1ncsc1C(=O)Oc1cncc(Cl)c1,0%,-0.02
NC(=NCCCc1ccccc1)NCCc1ccccn1,3%,-0.34
Cc1nc2c(-c3cccs3)cnn2c(C)c1C,-11%,1.35
C[C@]1(n2cc(CNc3ccc(Cl)cn3)cn2)CCS(=O)(=O)C1,-11%,1.54
Cc1csc(C(=O)NCCN2CCN(S(C)(=O)=O)CC2)c1,1%,-0.14
CC(CO)(CO)Nc1ncc(Cl)cn1,-8%,1.22
CO[C@H]1CCN(Cc2sc(C)nc2C)C1,-2%,0.27
N#CCC(=O)NC(=O)Nc1ccccc1,-5%,0.64
CCNC(=O)C(C)(C)CNC(=O)C(C)N1C(C)CCC1C (stereo not drawn),-17%,2.16
C=CCn1c(C)c(CC(=O)NCc2ccccc2C)c(=O)n2nc(-c3ccc(C)cc3)nc12,-7%,0.81
O=C(C(=O)N1CCCO[C@@H](CN2CCOCC2)C1)c1cccnc1,11%,-1.47
CCNC(=O)[C@H](C)NS(=O)(=O)c1sc2ccccc2c1Cl,-9%,0.95
CC(C)OC[C@H]1CN(C(=O)CCn2ncn(C)c2=O)CCO1,0%,-0.06
Cc1nc2n(n1)CCN(Cc1ncc(-c3ccccc3)o1)C2,-12%,1.46
O=C(CC1CCCC1)Nc1nc(-c2cccc3ccccc23)cs1,-9%,1.34

Structure (SMILES),% Inhibition,Z score
Cc1cc(CNC(=O)Nc2nnn(C(C)C)n2)ccn1,2%,-0.32
CCOC(=O)c1coc(N(C)CCc2scnc2C)n1,-18%,2.38
Cc1ccc(CN(C)C(=O)c2ccc3c(c2)OCO3)o1,-11%,1.43
CC(C)C(=O)N1CCc2nc[nH]c2[C@@H]1C1CCN(Cc2ccccc2)CC1,-6%,0.89
Cc1ccc(S(=O)(=O)N[C@H](C(=O)NCCCc2nnc3n2CCCC3)C(C)C)cc1C,-5%,1.09
CCOC(=O)c1noc2ncnc(NCCc3ccc(Cl)cc3)c12,2%,-0.35
COc1cc(C(=O)Nc2ccc3c(c2)nc(CN2CCCCCC2)n3C)cc(OC)c1OC,3%,-0.53
CC[C@H](NS(=O)(=O)N1CCC(OC)CC1)c1ncnn1CC,-11%,1.44
COc1cc(=O)n2c(c1C(=O)Nc1ccc(Cl)c(C)c1)CCCC2,-5%,0.82
Cc1ccccc1N1C(=O)CN(C(=O)C2COc3ccccc3O2)CC1C (stereo not drawn),-1%,0.18
Cn1cccc1C(=O)N1C[C@H]2CN(C(=O)c3ccccc3)C[C@@]2(CO)C1,-16%,2.12
O=C(CN(C1CCCC1)C1CCCC1)Nc1ccc(Br)cc1F,1%,-0.09
Cn1ncc(-c2ncc(C(F)(F)F)cc2Cl)c1NC(=O)c1ccccc1Cl,29%,-3.7
C#CC(NC(=O)c1cnc2n1CCOC2)C1CCCO1 (stereo not drawn),-1%,0.18
CCn1cc(S(=O)(=O)N2CCC(C)(c3noc(C)n3)CC2)cn1,-5%,0.62
COc1ccc(N2CCN(C(=O)c3ccc(NCCc4ccc(OC)c(OC)c4)c(S(=O)(=O)Nc4cccc(OC)c4)c3)CC2)cc1,24%,-2.9
CO[C@H]1CN(C)C[C@@H]1NS(=O)(=O)c1ccccc1C,1%,-0.24
O=C(COc1ccc(F)cc1)N1CCC[C@H](CN2CCCC2)CC1,-1%,0.2
Cc1ccc(-c2noc(-c3cn(CC(=O)Nc4ccccc4F)c4nc(C)ccc4c3=O)n2)cc1,21%,-1.88
COc1cc(C)nc(NCCn2ccc(=O)[nH]c2=O)n1,2%,-0.34
C[C@@H]1CN(CC(=O)N(C)Cc2cc3cc(F)ccc3[nH]2)C[C@H](C)O1,-7%,1.28
O=C(Cc1n[nH]c(=O)c2ccccc12)N1CC[C@@]2(O)CCCC[C@H]2C1,-10%,1.23
COc1ccc(CN(C[C@H](O)COC(C)C)C(C)C)cc1OC,-11%,1.26
c1cc2occc2c(NCC2(C3CC3)CC2)n1,-9%,1.4
CC(C)C(=O)N(CCCN1CCCC1)[C@H]1CCCN(C(=O)c2cscn2)C1,-2%,0.37
COCC[C@H]1CN(C(=O)CC(=O)Nc2ccccc2C)CCO1,2%,-0.21
CCc1nc2c(NS(=O)(=O)c3c(C)noc3C)cccn2n1,-1%,0.11

# — ChEMBL document CHEMBL4888484, “Replenishing the malaria drug discovery pipeline: Screening and hit evaluation of the MMV Hit Generation Library 1 (HGL1) against asexual blood stage Plasmodium falciparum ,using a nano luciferase reporter read-out” (2022)
